From the supplement of paper PMC7125110
± gives the standard error. Variants at the floor of the assay are shown more often than the library holds them.

B1: glmS ribozyme (parent)
chain: AUAAAAGCGCCAGAACUACAGAAAUGUAGUUGACGAGGAGGAGGUUUAUCGAAUUUUCGGCGGAUGCCUCCAAA

How the values were obtained:
Settings in all cases: with glucosamine-6-phosphate
glucosamine-6-phosphate [1] = variants of: B1; assay: self-cleavage kobs at 40 uM GlcN6P; higher = faster cleavage; RNA array
Outline: (§1)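 On sequenced MiSeq chips, barcoded ribozyme variants were made in situ by E. coli RNA polymerase and followed at 37 °C through a hybridised Cy3 probe. Glucosamine-6-phosphate was flowed in at 40 μM to 10 mM in HEPES/KCl/Mg(OAc)2 buffer. Exponential fits to normalised per-tile medians gave kobs, and weighted Michaelis–Menten fits gave kcat and KM.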

glucosamine-6-phosphate [2] = variants of: B1; assay: self-cleavage kobs at 160 uM GlcN6P; higher = faster cleavage; RNA array
Outline: as §1

glucosamine-6-phosphate [3] = variants of: B1; assay: self-cleavage kobs at 2500 uM GlcN6P; higher = faster cleavage; RNA array
Outline: as §1

glucosamine-6-phosphate [4] = variants of: B1; assay: self-cleavage kobs at 10000 uM GlcN6P; higher = faster cleavage; RNA array
Outline: as §1

glucosamine-6-phosphate [5] = variants of: B1; assay: self-cleavage kobs at 640 uM GlcN6P; higher = faster cleavage; RNA array
Outline: as §1

Variant | self-cleavage kobs at 40 uM GlcN6P (glucosamine-6-phosphate [1]) [s⁻¹] | self-cleavage kobs at 160 uM GlcN6P (glucosamine-6-phosphate [2]) [s⁻¹] | self-cleavage kobs at 2500 uM GlcN6P (glucosamine-6-phosphate [3]) [s⁻¹] | self-cleavage kobs at 10000 uM GlcN6P (glucosamine-6-phosphate [4]) [s⁻¹] | self-cleavage kobs at 640 uM GlcN6P (glucosamine-6-phosphate [5]) [s⁻¹]
A48U U49G | < 1e-05 |  |  |  | 
A48U U57C | < 1e-05 | < 1e-05 | < 1e-05 | < 1e-05 | 
U49A A53G | < 1e-05 |  |  |  | 
U49A A64C | < 1e-05 |  | < 1e-05 | < 1e-05 | 
U49A C50G G59C G63U | < 1e-05 |  |  |  | 
U49A C58G | < 1e-05 |  |  | < 1e-05 | 
U49A C58U U65C | < 1e-05 |  | < 1e-05 | < 1e-05 | 
U49A G59A | < 1e-05 | < 1e-05 | < 1e-05 |  | < 1e-05
U49A G59C | < 1e-05 |  | < 1e-05 | < 1e-05 | < 1e-05
U49A G60U | < 1e-05 | < 1e-05 |  | < 1e-05 | 
U49A G63A | < 1e-05 |  | < 1e-05 | < 1e-05 | < 1e-05
U49A U54C | < 1e-05 |  |  |  | 
U49A U55C | < 1e-05 | < 1e-05 |  |  | 
U49A U55G | < 1e-05 |  |  |  | 
U49C A64G | < 1e-05 | < 1e-05 | < 1e-05 | < 1e-05 | < 1e-05
U49C A64U | < 1e-05 | < 1e-05 |  | < 1e-05 | < 1e-05
U49C C71A | < 1e-05 |  |  |  | 
U49C G51U | < 1e-05 |  | < 1e-05 | < 1e-05 | 
U49C G59U C67U | < 1e-05 |  |  |  | 
U49C G60C U69C | < 1e-05 |  |  | < 1e-05 | 
U49C G62C | < 1e-05 |  | < 1e-05 |  | < 1e-05
U49C U65G | < 1e-05 |  | < 1e-05 | < 1e-05 | 
U49G A52G U65A C68A | < 1e-05 |  |  |  | 
U49G A53U U56A C67A C70A | 4.31e-05 ± 1.9e-05 |  |  |  | 
U49G G59U | < 1e-05 | < 1e-05 | < 1e-05 | < 1e-05 | 
U49G G66U | < 1e-05 | < 1e-05 |  |  | < 1e-05

Variant | self-cleavage kobs at 40 uM GlcN6P (glucosamine-6-phosphate [1]) [s⁻¹] | self-cleavage kobs at 160 uM GlcN6P (glucosamine-6-phosphate [2]) [s⁻¹] | self-cleavage kobs at 2500 uM GlcN6P (glucosamine-6-phosphate [3]) [s⁻¹] | self-cleavage kobs at 10000 uM GlcN6P (glucosamine-6-phosphate [4]) [s⁻¹] | self-cleavage kobs at 640 uM GlcN6P (glucosamine-6-phosphate [5]) [s⁻¹]
C50A A64U | < 1e-05 |  |  | < 1e-05 | < 1e-05
C50A C68G | 2.54e-05 ± 1e-05 |  |  |  | 
C50A G62U | < 1e-05 |  |  | < 1e-05 | 
C50A U55A | < 1e-05 |  |  |  | < 1e-05
C50A U56C | < 1e-05 |  |  | < 1e-05 | < 1e-05
C50A U57G | < 1e-05 |  |  | < 1e-05 | 
C50G C58A C68G C71U | 9.15e-05 ± 1.8e-05 |  |  | 0.00024 ± 5.2e-05 | 
C50G C70A C71G | 7.15e-05 ± 1.7e-05 |  |  |  | 
C50G C71U | 6.9e-05 ± 9.9e-06 | 0.000107 ± 1e-05 |  |  | 0.000194 ± 2.7e-05
C50G G59C C67G | 0.00018 ± 5.4e-05 |  |  |  | 
C50G G63A C68A U69C | 0.000106 ± 2.3e-05 |  |  | 0.000147 ± 2.8e-05 | 
C50G U57A | 3.58e-05 ± 1.6e-05 | 8.31e-05 ± 1.4e-05 | 6.05e-05 ± 2.7e-05 |  | 5.84e-05 ± 1.6e-05
C50G U57A G63U A64U | 7.9e-05 ± 2.7e-05 |  |  |  | 
C50U A52U C71A | < 1e-05 |  |  |  | 
C50U C58A G63A | < 1e-05 |  |  | < 1e-05 | 
C50U C61G G63U | < 1e-05 |  |  |  | 
C50U C61U C68A | < 1e-05 |  |  |  | 
C50U G51A U65A | < 1e-05 |  | < 1e-05 |  | 
C50U G60U | < 1e-05 | < 1e-05 | < 1e-05 | < 1e-05 | < 1e-05
C50U U54C | < 1e-05 |  |  |  | 
C50U U56C | < 1e-05 | < 1e-05 |  |  | 
C50U U65A | < 1e-05 | < 1e-05 |  |  | < 1e-05
C50U U65G | < 1e-05 |  |  |  | 
G51A | < 1e-05 |  |  | < 1e-05 | 
G51A A64G | < 1e-05 | < 1e-05 | < 1e-05 |  | < 1e-05
G51A C58U G59U | < 1e-05 |  |  |  | 

Variant | self-cleavage kobs at 40 uM GlcN6P (glucosamine-6-phosphate [1]) [s⁻¹] | self-cleavage kobs at 160 uM GlcN6P (glucosamine-6-phosphate [2]) [s⁻¹] | self-cleavage kobs at 2500 uM GlcN6P (glucosamine-6-phosphate [3]) [s⁻¹] | self-cleavage kobs at 10000 uM GlcN6P (glucosamine-6-phosphate [4]) [s⁻¹] | self-cleavage kobs at 640 uM GlcN6P (glucosamine-6-phosphate [5]) [s⁻¹]
G51A C67G | < 1e-05 |  |  | < 1e-05 | 
G51A C67U | < 1e-05 |  |  |  | 
G51A G59U | < 1e-05 |  |  |  | 
G51A U65C | < 1e-05 |  |  | < 1e-05 | 
G51A U69C | < 1e-05 |  |  | < 1e-05 | 
G51C A53U | < 1e-05 | < 1e-05 | < 1e-05 |  | 
G51C C70G | < 1e-05 | < 1e-05 | < 1e-05 |  | 
G51C C70U | < 1e-05 | < 1e-05 | < 1e-05 | < 1e-05 | < 1e-05
G51C G59A C61A C70U | < 1e-05 |  |  |  | < 1e-05
G51C G60U | < 1e-05 | < 1e-05 |  | < 1e-05 | < 1e-05
G51C G62C | < 1e-05 | < 1e-05 | < 1e-05 | < 1e-05 | < 1e-05
G51C G63A | < 1e-05 | < 1e-05 | < 1e-05 |  | 
G51C U56C A64G C68U | < 1e-05 |  |  |  | 
G51U G62A | < 1e-05 | < 1e-05 |  |  | 
G51U U54C | < 1e-05 | < 1e-05 |  | < 1e-05 | < 1e-05
A52C | < 1e-05 | < 1e-05 | 2.17e-05 ± 1.5e-06 | 2.56e-05 ± 1.3e-06 | 1.03e-05 ± 3.3e-06
A52C A53U | < 1e-05 | < 1e-05 |  |  | < 1e-05
A52C A64C C67G | < 1e-05 |  |  | < 1e-05 | 
A52C C67A | < 1e-05 |  |  |  | 
A52C C70U | < 1e-05 |  |  |  | 
A52C G60A G66A | < 1e-05 | < 1e-05 |  |  | < 1e-05
A52C G63U | < 1e-05 | < 1e-05 |  | < 1e-05 | 
A52C G66U | < 1e-05 | < 1e-05 |  | < 1e-05 | 
A52C U55A G63U | < 1e-05 |  |  |  | < 1e-05
A52C U55A U56C | < 1e-05 |  | < 1e-05 | < 1e-05 | < 1e-05
A52C U57A G59A | < 1e-05 |  |  |  | 

Variant | self-cleavage kobs at 40 uM GlcN6P (glucosamine-6-phosphate [1]) [s⁻¹] | self-cleavage kobs at 160 uM GlcN6P (glucosamine-6-phosphate [2]) [s⁻¹] | self-cleavage kobs at 2500 uM GlcN6P (glucosamine-6-phosphate [3]) [s⁻¹] | self-cleavage kobs at 10000 uM GlcN6P (glucosamine-6-phosphate [4]) [s⁻¹] | self-cleavage kobs at 640 uM GlcN6P (glucosamine-6-phosphate [5]) [s⁻¹]
A52G | 3.36e-05 ± 1e-06 | 0.000104 ± 3.3e-06 | 0.00127 ± 5.6e-05 | 0.0022 ± 6.2e-05 | 0.000385 ± 9.1e-06
A52G C71U | 2.74e-05 ± 6e-06 | 7.83e-05 ± 8.6e-06 | 0.00078 ± 0.00015 | 0.00138 ± 0.00012 | 0.000293 ± 2.7e-05
A52G G59A G63C | < 1e-05 |  |  | < 1e-05 | 
A52G G60A U65G C71U | < 1e-05 |  |  |  | 
A52G G63A | < 1e-05 | < 1e-05 | < 1e-05 |  | 
A52U A53U | < 1e-05 |  | 8.03e-05 ± 1.2e-05 | 0.000148 ± 1.7e-05 | 2.65e-05 ± 1e-05
A52U A64C | < 1e-05 | < 1e-05 | < 1e-05 | < 1e-05 | < 1e-05
A52U A64U | < 1e-05 | < 1e-05 |  | < 1e-05 | < 1e-05
A52U C71G | < 1e-05 |  | 5.28e-05 ± 9.2e-06 | 8.19e-05 ± 1e-05 | 3.14e-05 ± 1.3e-05
A52U G59A | < 1e-05 | < 1e-05 |  |  | < 1e-05
A52U G59U U69A | < 1e-05 |  |  |  | 
A52U G60A | < 1e-05 | < 1e-05 |  | < 1e-05 | < 1e-05
A52U G60C A64G C67A | < 1e-05 |  |  |  | 
A52U G62A | < 1e-05 |  |  |  | 
A52U G62C | < 1e-05 |  | < 1e-05 | < 1e-05 | 
A52U U55A G62C U69C | < 1e-05 |  |  | < 1e-05 | 
A52U U56C | < 1e-05 |  |  |  | < 1e-05
A52U U65A U69C | < 1e-05 |  |  |  | 
A53C C61G | < 1e-05 |  |  | < 1e-05 | < 1e-05
A53C G59U C68G | < 1e-05 |  |  |  | 
A53C G66A | 0.000154 ± 2.2e-05 | 0.000292 ± 6.4e-05 | 0.00288 ± 0.00047 | 0.00374 ± 0.00053 | 0.00107 ± 0.00017
A53C U54A | 0.000184 ± 2.3e-05 |  |  |  | 
A53G C70U | 0.00158 ± 0.00015 | 0.00129 ± 0.00027 |  | 0.0616 ± 0.014 | 0.0139 ± 0.0036
